Reference: publication PMC5806898

Experiments:
[1] = molecular target: T1, GST followed by the N-terminal 709 residues of SPG15 (UniProt Q68DK2); experiment: pull-down; GST_15N1–709 as bait in HeLa cell lysate (PBS with 0.5% Triton X-100, pH 7.4; 2.5 mg/ml protein, 50 ug bait for every 4 ml), recovered with glutathione Sepharose 4B; western blot, bands quantified with IMAGEJ
T1 sequence: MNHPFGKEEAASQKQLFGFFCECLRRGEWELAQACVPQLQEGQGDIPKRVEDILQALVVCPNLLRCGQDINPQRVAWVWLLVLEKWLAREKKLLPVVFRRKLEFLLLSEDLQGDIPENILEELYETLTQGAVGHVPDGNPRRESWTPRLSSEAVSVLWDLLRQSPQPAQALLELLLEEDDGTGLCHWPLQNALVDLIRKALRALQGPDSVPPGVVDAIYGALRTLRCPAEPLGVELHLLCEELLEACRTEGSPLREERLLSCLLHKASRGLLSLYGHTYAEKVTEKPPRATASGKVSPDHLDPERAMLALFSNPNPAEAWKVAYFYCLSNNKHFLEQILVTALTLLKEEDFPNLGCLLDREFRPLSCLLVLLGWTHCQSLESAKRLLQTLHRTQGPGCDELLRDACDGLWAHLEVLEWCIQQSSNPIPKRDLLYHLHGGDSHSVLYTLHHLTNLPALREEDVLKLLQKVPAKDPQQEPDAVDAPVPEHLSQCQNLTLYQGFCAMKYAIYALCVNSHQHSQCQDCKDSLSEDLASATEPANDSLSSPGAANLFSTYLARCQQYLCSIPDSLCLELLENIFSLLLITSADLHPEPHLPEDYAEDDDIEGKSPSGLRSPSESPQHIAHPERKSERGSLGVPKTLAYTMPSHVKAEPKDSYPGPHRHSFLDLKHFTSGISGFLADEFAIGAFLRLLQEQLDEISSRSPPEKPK

[2] = molecular target: SPG15-GFP (UniProt Q68DK2); experiment: co-IP; native immunoprecipitation with anti-GFP and protein A-Sepharose from HeLa cells stably expressing SPG15-GFP (control: HeLa cells); western blot, bands quantified with IMAGEJ, 3 repeats
[3] = molecular target: T1, GST followed by the N-terminal 709 residues of SPG15; experiment: pull-down; GST_15N1–709 as bait in SH-SY5Y cell lysate (PBS with 0.5% Triton X-100, pH 7.4; 2.5 mg/ml protein, 50 ug bait for every 4 ml), recovered with glutathione Sepharose 4B; western blot, bands quantified with IMAGEJ

cation-independent mannose 6-phosphate receptor (a stretch of the chain, chain not printed)
percent of input pulled down [1]: 0.15%
percent of input pulled down [2]: 0.1%
percent of input pulled down [3]: 0.4%
